For 14 molecules, activity change, negative = inhibition results are on record in PubChem BioAssay AID1745853 (National Center for Advancing Translational Sciences (NCATS), 2022).

Some of the results follow. Shown are side measurements of this screen, not its main read-out; they come without a call.

Common to all, as to test: Primary Screen for Target Class Profiling of Small Molecule Inhibitors of Methyltransferases
The target in test [1] is Glycine N-methyltransferase (Homo sapiens) (UniProt Q14749). To be noted: purified enzyme, MTase-Glo SAH luminescence; measured here: GNMT inhibition; at 40 µM; stronger effect = lower value. The text has this:
(§1) PI: Matthew D. Hall Ph.D. and Quinlin M. Hanson Ph.D.
(§2) National Center for Advancing Translational Sciences (NCATS)
(§3) National Institute of Health (NIH), Rockville, MD
(§4) Target class profiling (TCP) is a chemical biology approach amenable to investigating understudied biological targets. TCP is achieved by developing a generalizable assay platform and applying it to screen a curated set of compound libraries against representative members of a target class. Small molecule methyltransferases (SMMTase) are a subclass of methyltransferase that act on metabolites to modulate signaling pathways, metabolize xenobiotics, or balance the available methyl pool. We screened four curated libraries totaling 27,574 unique compounds against the SMMTases nicotinamide N-methyltransferase (NNMT), phenylethanolamine N-methyltransferase (PNMT), histamine N-methyltransferase (HNMT), glycine N-methyltransferase (GNMT), catechol O-methyltransferase (COMT), and guanidinoacetate N-methyltransferase (GAMT). The data generated by this TCP can be leveraged for informed tool molecule development. For example, in the associated publication we identified a chemotype of HNMT-selective inhibitors. Additionally, we identified a putative SMMTase-selective inhibitor with potential as a tool molecule for studying broader methyltransferase biology.
(§5) High-through put screening assays were developed at the National Center for Advancing Translational Science (NCATS) for the enzymes NNMT, PNMT, HNMT, GNMT, COMT, and GAMT. Enzymatic activity was measured as a function of SAM cofactor conversion using the MTase Glo kit (Promega) for all enzymes. All assays were performed in 1536-well format with substrates and SAM concentrations at KM values. Enzyme concentration and assay timing were optimized for 10-20% SAM conversion. Initial screening of 27,574 compounds was done as single-point assays using the highest compound concentration (40 uM). […] These compounds were replated in 11-point dose response and assayed against NNMT, PNMT, HNMT, GNMT, COMT, GAMT, and a counter-assay. The IC50 and efficacy (maximal response) values were determined for each dose-response curve. These values are also accounted for in the area under the curve (AUC) values.
(§6) PROTOCOL TABLE (as described by Inglese J, Shamu CE and Guy RK. 2007)
(§7) SEQUENCE No. (e.g., 1, 2, 3, etc.); […] (e.g., Cells, Incubation, Reagent, etc.); VALUE; DESCRIPTION.
(§8) 1; Reagent; 2 uL; SMMTase Enzyme (2x) in reaction buffer, columns 1- 48.
(§9) 2; Reagent; 1 uL; SAM (4x) in reaction buffer, columns 1-48.
(§10) 3; Controls; 23 nL; DMSO in column 4; sinefungin in DMSO (0 uM - 40 uM) in 7-point 1:2 dilution series (n = 2) in column 2.
(§11) 4; Compounds; 23 nL; Columns 5-48.
(§12) 5; Reagent; 1 uL; Substrate (4x) in reaction buffer, columns 2-48.
(§13) 6; Time; 20-30 min; Incubation.
(§14) 7; Reagent; 1 uL; MTase-Glo reagent (5X), columns 1-48.
(§15) 8; Time; 30 min; Incubation.
(§16) 9; Reagent; 5 uL; MTase-Glo Detection reagent, columns 1-48.
(§17) 10; Time; 30 min; Incubation, luminescence evolution.
(§18) 11; Detection; Luminescence; ViewLux uHTS Microplate Imager (PerkinElmer).
(§19) NOTES (numbers refer to Sequence numbers above)
(§20) 1, 2, 5. White Medium Binding Greiner 1536-well plates (Cat #789175-F, Greiner Bio-One, Monroe, NC); Reaction buffer: 50 mM Tris, pH 8.0, 3 mM MgCl2, 1 mM EDTA, 50 mM NaCl, 1 mM DTT, and 0.1 mg/mL BSA. Evaporation was prevented by covering assay plates with metal lids containing holes to allow gas diffusion.
(§21) 1. Six SMMTase were profiled: HNMT, GNMT, PNMT, COMT, NNMT, GAMT
(§22) 5. The corresponding substrate was used for each enzyme: HNMT - 5.3 uM Histamine; GNMT - >500 uM Glycine; PNMT - 16.2 uM Norephinephrine; COMT - 13.7 uM Norephinephrine; NNMT - 3.8 uM Nicotinamide; GAMT - 2.5 uM Guanidinoacetate.6, 8, 10. Room temperature
(§23) 6. Final reaction conditions: 10 nM COMT, 5 uM SAM, 15 uM norepinephrine, 50 mM Tris, pH 8.0, 3 mM MgCl2, 1 mM EDTA, 50 mM NaCl, 1 mM DTT, and 0.1 mg/mL BSA; refer to tables 2 and S1 for specific timing.
8. […]

Test [2] has as its target Guanidinoacetate N-methyltransferase (Homo sapiens) (UniProt Q14353). The conditions noted are these: purified enzyme, MTase-Glo SAH luminescence; measured here: GAMT inhibition; at 40 µM; stronger effect = lower value.
From the text: as §1, §2, §3, §4, §5, §6, §7, §8, §9, §10, §11, §12, §13, §14, §15, §16, §17, §18, §19, §20, §21, §22, §23
8. […]

Test [3] has as its target Histamine N-methyltransferase (Homo sapiens) (UniProt P50135). To be noted: purified enzyme, MTase-Glo SAH luminescence; measured here: HNMT inhibition; at 40 µM; stronger effect = lower value.
From the text: as §1, §2, §3, §4, §5, §6, §7, §8, §9, §10, §11, §12, §13, §14, §15, §16, §17, §18, §19, §20, §21, §22, §23
8. […]

Test [4] addresses Nicotinamide N-methyltransferase (Homo sapiens) (UniProt P40261). The conditions noted are these: purified enzyme, MTase-Glo SAH luminescence; measured here: NNMT inhibition; at 40 µM; stronger effect = lower value.
From the text: as §1, §2, §3, §4, §5, §6, §7, §8, §9, §10, §11, §12, §13, §14, §15, §16, §17, §18, §19, §20, §21, §22, §23
8. […]

The target of test [5] is Phenylethanolamine N-methyltransferase (Homo sapiens) (UniProt P11086). To be noted: purified enzyme, MTase-Glo SAH luminescence; measured here: PNMT inhibition; at 40 µM; stronger effect = lower value.
From the text: as §1, §2, §3, §4, §5, §6, §7, §8, §9, §10, §11, §12, §13, §14, §15, §16, §17, §18, §19, §20, §21, §22, §23
8. […]
On the % scale 0 is the no-effect control and ±100 the full control effect.

On to `O=C(C1CCCN1C(=O)C1CC1)N1CCCC(c2nc3ncccc3[nH]2)C1` (stereo not given), for which the activity change, negative = inhibition was -6.26% in test [1]; -8.19% in test [2]; -3.78% in test [3]; -16.7% in test [4]; -8.71% in test [5].

With `COC(=O)[C@H](NC(=O)[C@@H]1[C@@H](NC(=O)Nc2cccc(OC)c2)CCN1C(=O)c1cnccn1)C(C)C`, the activity change, negative = inhibition in test [1] is -0.632%; in test [2], -4.01%; in test [3], -2.08%; in test [4], -0.812%; in test [5] it was -2.21%.

For the molecule `COc1ccc(C)cc1NC(=O)N1CCCC1c1nncn1C1CCCC1` (stereo not given), the activity change, negative = inhibition in test [1] was -7.59%; in test [2], -14.3%; in test [3], -5.09%; in test [4], -13.3%; in test [5] it was -6.1%.

Turning to `CCNC(=O)c1c(C)oc2c1CN(Cc1ccc(Br)o1)CC2`, the activity change, negative = inhibition in test [1] is -9.03%; in test [2], -9.04%; in test [3], -4.22%; in test [4], -13.5%; in test [5], -18.7%.

Regarding `Cc1ccc(NC(=O)N2Cc3c(sc4c3CCCC4)-n3cccc3C2c2cccc(F)c2)cc1` (stereo not given), the activity change, negative = inhibition in test [1] is 1.6%; in test [2], 1.68%; in test [3], 9.27%; in test [4], 8.52%; in test [5], 8.32%.

For the molecule `CCc1cnc(C2CCN(C(=O)OC(C)(C)C)CC2)[nH]1`, the activity change, negative = inhibition in test [1] was -5.43%; in test [2] it was -10.3%; in test [3], -7.51%; in test [4], -19.1%; in test [5], -2.53%.

As to `CCN1CCN(C(=O)CCC2CCN(S(=O)(=O)c3ccccc3)CC2)CC1`, the activity change, negative = inhibition in test [1] was -3.86%; in test [2] it was -6.37%; in test [3], -3.85%; in test [4], -11.5%; in test [5], -9.9%.

For the molecule `COc1cccc(C(=O)N2CCC3(CC2)CCN(CCc2ccccc2)c2ccccc2O3)c1`, the activity change, negative = inhibition in test [1] is -0.341%; in test [2], -0.848%; in test [3] it was -0.65%; in test [4], -5.89%; in test [5], -2.41%.

Turning to `OC[C@@]1(O)CO[C@H](OC[C@H]2O[C@@H](OCCc3ccccc3)[C@H](O)[C@@H](O)[C@@H]2O)[C@@H]1O`, the activity change, negative = inhibition in test [1] is 4.93%; in test [2], 4.5%; in test [3], 10%; in test [4], -7.47%; in test [5] it was 1.12%.

With `Cc1cccc(N2CCN(CCCNC(=O)CCc3nnc4n(CC(C)C)c(=O)c5ccccc5n34)CC2C)c1` (stereo not given), the activity change, negative = inhibition in test [1] is -4.35%; in test [2] it was 1.81%; in test [3] it was 5.31%; in test [4] it was 14%; in test [5], 2.88%.

In the case of `Cc1ccc(N2C(=O)c3cc(-c4ccco4)nn3CC2(C)C(=O)NC2CCCCCC2)c(C)c1` (stereo not given), the activity change, negative = inhibition was 0.309% in test [1]; 4.49% in test [2]; 3.07% in test [3]; -0.211% in test [4]; -0.543% in test [5].

For `CC(C(=O)NCc1ccccc1)n1ccc2cc(S(=O)(=O)N3CCCC3)ccc21` (stereo not given), the activity change, negative = inhibition in test [1] was determined as 9.91%; in test [2] it was 2.44%; in test [3] it was 6.29%; in test [4], 10.8%; in test [5] it was 5.76%.

Turning to `CCCN1C(=O)c2c(C(=O)NCCC3=CCCCC3)ncn2CC1(C)C(=O)NCc1ccc(OC)cc1` (stereo not given), the activity change, negative = inhibition in test [1] is -2.68%; in test [2] it was 0%; in test [3], 1.01%; in test [4], -0.346%; in test [5], 4.84%.

As to `CCC1c2ccc(C)n2CCN1C(=O)Nc1ccc(C)cc1C` (stereo not given), the activity change, negative = inhibition in test [1] is -7.34%; in test [2] it was 4.27%; in test [3] it was -4.49%; in test [4] it was -4.73%; in test [5], -4.53%.
